According to PubChem BioAssay AID463173 (ICCB-Longwood Screening Facility, Harvard Medical School, 2010):
In all, about 52,000 compounds went through this assay and about 4,300 (8.3%) were called active. Rule as the data show it: active = survival mostly below about 52% (no sharp cut-off); inactive = mostly above about 56%. This is one part of the list.

What follows are compounds tested on DeltatarO mutant (assay: growth inhibition of S. aureus wild type versus tarO mutant, primary screen, teichoic acid synthesis inhibitors, RN4220, OD600 (AID 463173)). Details: OD600, 18 h, active compounds read low, screened at 18.75 µg/mL (by protocol).
In the case of `Cc1ccc(NCc2cccn2-c2nnc(N3CCC(C(=O)NCc4ccc(F)cc4)CC3)s2)cc1`, the survival is reported as inactive: 73%.
For `CC1CCCCN1CCCNC(=O)Cn1ncc2c3ccccc3n(Cc3ccccc3F)c2c1=O` (centres undefined), the survival was inactive: 106%.
For `COc1cc(Cl)c(NS(=O)(=O)c2ccc(-c3coc(C)n3)cc2)c(OC)c1`, the survival was inactive: 88%.
`CCN(c1ncnc2c1cnn2-c1cccc(Cl)c1)C1CCCCC1` was tested, and the survival was inactive: 63%.
`Cc1ccc(-c2cc(C(F)(F)F)c(C#N)c(SCC(=O)Nc3ccccc3F)n2)cc1` was tested, and the survival was inactive: 55%.
In the case of `COc1cccc(CNC(=O)CN2C(=O)CSc3ccc(S(=O)(=O)N4CCCC4)cc32)c1`, the survival is reported as inactive: 90%.
For `Cc1cc(C)c(NC(=O)CN2C(=O)CCSc3ccc(S(=O)(=O)N4CCCC4)cc32)c(C)c1`, the survival was inactive: 84%.
For `COCCn1c(C)cc(O)c(C(c2ccc(Cl)cc2)N2CCCCC2)c1=O` (centres undefined), the survival was inactive: 83%.
With `COc1ccc(C2C(=O)N(C3CCCCC3)CC(=O)N2C2CCCCC2)cc1` (centres undefined) the survival was inactive: 87%.
In the case of `CSc1ccc(CNC(=O)Cn2ccc3cc(S(=O)(=O)N4CCCC4)ccc32)cc1`, the survival is reported as inactive: 75%.
For `CC(C)CCNC(=O)CSc1nc2ccccc2nc1Cc1ccc(Cl)cc1`, the survival was inactive: 78%.
With `CCc1ccc(NC(=O)CSc2ccccn2)cc1` the survival was inactive: 89%.
`CN(C)c1ccc(C(=O)NCc2ccc3c(c2)CCN3C(=O)c2ccccc2)cc1` was tested, and the survival was inactive: 91%.
In the case of `CC1CCN(c2nc(-c3ccc(Br)cc3)nc3ccccc23)CC1`, the survival is reported as inactive: 82%.
In the case of `CCN(C(=O)CC(C)C)c1nnc(-c2ccccc2C)s1`, the survival is reported as inactive: 113%.
For `Cc1cc(C)cc(NC(=O)CCN2C(=O)c3ccccc3Sc3ncccc32)c1`, the survival was inactive: 75%.
For `O=C(Cn1c(=O)n(-c2ccccc2)c(=O)c2sc3ccccc3c21)NC1CCCC1`, the survival was inactive: 122%.
`N#C/C(=C\c1ccc(Cl)cc1)c1nc(-c2cc3c(ccc4ccccc43)oc2=O)cs1` was tested, and the survival was inactive: 80%.
In the case of `CCOC(=O)C1C(=O)N(C(=O)c2cncc(Br)c2)CC1c1ccccc1` (centres undefined), the survival is reported as inactive: 89%.
In the case of `O=C(CN1C(=O)CC(c2ccc(F)cc2)=Nc2ccccc21)NCc1ccccc1Cl`, the survival is reported as inactive: 78%.
`CN(C1CCCCC1)S(=O)(=O)c1ccc2c(c1)c(=O)c(C(=O)NCc1ccc(Cl)cc1)cn2C` was tested, and the survival was inactive: 71%.
For `COCC(C)NCc1ccccc1C` (centres undefined), the survival was inactive: 92%.
With `CCN(Cc1ccccc1)C(=O)C(CC(C)C)NS(=O)(=O)c1ccc2c(c1)CCN2C(C)=O` (centres undefined) the survival was inactive: 84%.
`O=C(c1ccccc1)N1CCCCC1CCN1CCCCC1` (centres undefined) was tested, and the survival was inactive: 70%.
`CN(C)c1ccc(Cl)nn1` was tested, and the survival was inactive: 103%.
`Cc1cccc(N2CCN(C(=O)c3nn(C)c4c3CS(=O)(=O)c3ccccc3-4)CC2C)c1` (centres undefined) was tested, and the survival was inactive: 71%.
`COc1ccccc1CNC(=O)c1c(O)nc2cc(C)ccn2c1=O` was tested, and the survival was inactive: 87%.
`Cc1nc2ccc(S(=O)(=O)NC(C(=O)NCc3ccc(Cl)cc3)C(C)C)cc2s1` (centres undefined) was tested, and the survival was inactive: 118%.
For `COc1cc2c(-c3ccccc3Cl)nc3c(c(C)nn3-c3ccccc3)c2cc1OC`, the survival was inactive: 57%.
With `Cc1cccc(C(=O)Nc2ccccc2C(=O)OCc2cc(=O)n3nc(C4CC4)sc3n2)c1` the survival was inactive: 88%.
In the case of `CCOC(=O)c1c(-c2ccc(OC)c(OC)c2)csc1NC(=O)c1ccc(F)cc1`, the survival is reported as inactive: 77%.
`O=C(C1CCN(c2nc3ccccc3[nH]2)CC1)N1CCN(c2cccc(Cl)c2)CC1` was tested, and the survival was active: 8%.
For `COc1cccc(N2C(=O)CSC23C(=O)N(CC(=O)NCc2ccc(C)cc2)c2ccccc23)c1` (centres undefined), the survival was inactive: 89%.
`CSC1=NC2(CCN(C(=O)NC3CCCCC3)CC2)N=C1c1ccc(C(C)(C)C)cc1` was tested, and the survival was inactive: 67%.
`Cc1cc(C)c2oc(C(=O)Nc3c(C(=O)Nc4ccccc4)oc4ccccc34)cc(=O)c2c1` was tested, and the survival was active: 51%.
In the case of `CCCCn1cc(S(=O)(=O)c2ccc(Cl)cc2)c(=O)c2cc(F)c(N3CCCCC3)cc21`, the survival is reported as inactive: 82%.
For `Cc1ccc(OCC(=O)Nc2ccc(S(=O)(=O)N(Cc3ccccc3)c3ccccc3)cc2)cc1`, the survival was inactive: 72%.
For `Cn1c(SCc2ccc(F)cc2)nc2ccc(C(=O)NCc3ccccc3)cc21`, the survival was inactive: 49%.
For `O=C(CSc1oc(-c2ccco2)nc1S(=O)(=O)c1ccccc1)c1ccc(Cl)cc1`, the survival was inactive: 61%.
In the case of `CCOc1cccc(C(=O)Nc2ccc(NC(=O)c3ccc(Br)cc3)cc2)c1`, the survival is reported as inactive: 172%.
`CCOC(=O)c1ccc(NC(=O)CC2C(=O)N(c3ccccc3)C(=O)N2C2CCCCC2)cc1` (centres undefined) was tested, and the survival was inactive: 67%.
With `O=C(CSc1nnc(-c2ccccc2)o1)Oc1ccc(Br)cc1` the survival was inactive: 76%.
For `CCOC(=O)c1oc2ccc(S(=O)(=O)n3nc(-c4cc(OCC)c(OCC)c(OCC)c4)cc3N)cc2c1C`, the survival was inactive: 65%.
For `CCN(c1ccc(C)cc1C)S(=O)(=O)c1nnc(NC(=O)c2ccccc2OC)s1`, the survival was inactive: 55%.
With `COc1ccc2nc(Cl)c(CNC3CCCC3)cc2c1` the survival was inactive: 99%.
For `COc1cccc(CNCCSc2nnnn2C)c1OCc1ccc(Cl)cc1`, the survival was inactive: 62%.
With `CCCN(CCC)CCCNC(=O)c1cn(CC)c2ccc(S(=O)(=O)N3CCc4ccccc4C3)cc2c1=O` the survival was inactive: 91%.
In the case of `CCc1ccc(Cn2nnc(C(=O)Nc3ccc(C)cc3)c2N)cc1`, the survival is reported as inactive: 133%.
In the case of `CC(C)c1ccc(NC(=O)C2CCCN(S(=O)(=O)c3ccc4[nH]c(=O)ccc4c3)C2)cc1` (centres undefined), the survival is reported as inactive: 92%.
In the case of `COCCNC(=S)N1CCC(NC(C)=O)CC1`, the survival is reported as inactive: 83%.
`CCOC(=O)c1ccc2c(c1)N(CC(=O)Nc1ccc(CC)cc1)C(=O)c1ccccc1S2` was tested, and the survival was inactive: 67%.
`Cc1ccc(Nc2c(-c3ccc(N4CCOCC4)cc3)nc3ncccn23)cc1C` was tested, and the survival was inactive: 88%.
With `COc1cc(NC(=O)Cn2cnc3sc(C)c(S(=O)(=O)N4CCN(C)CC4)c3c2=O)cc(OC)c1OC` the survival was inactive: 155%.
With `Cn1c(=O)oc2cc(S(=O)(=O)N3CCCC(C(=O)N4CCN(c5cccc(Cl)c5)CC4)C3)ccc21` (centres undefined) the survival was inactive: 62%.
With `CC1=C(C(=O)OCC2CCCCC2)C(c2cccc(F)c2F)CC(=O)N1` (centres undefined) the survival was inactive: 95%.
`COc1ccc(CNC(=O)CN(c2ccc(OC)cc2)S(=O)(=O)c2c(C)[nH]c(=O)[nH]c2=O)cc1` was tested, and the survival was inactive: 81%.
For `O=C(CC1(O)C(=O)N(Cc2ccccc2)c2ccc(Br)cc21)c1ccccc1` (centres undefined), the survival was inactive: 99%.
With `Cc1ccc(-n2c(-c3ccco3)nc3c(cnn3-c3ccc(C)cc3)c2=O)cc1` the survival was inactive: 81%.
In the case of `O=C(Cc1ccccc1F)N1CCC(c2nc3c(nnn3Cc3cccc(Cl)c3)c(=O)[nH]2)CC1`, the survival is reported as active: 44%.
In the case of `Cc1cc(C)cc(OCCn2c(CCNC(=O)C3CCCCC3)nc3ccccc32)c1`, the survival is reported as inactive: 92%.
`COc1cccc(/C=N/NC(=O)c2cccc(C)c2)c1O` was tested, and the survival was active: 2%.
With `CCc1ccc(N2CCn3c2nc2c3c(=O)n(CCCc3ccccc3)c(=O)n2C)cc1` the survival was inactive: 82%.
In the case of `CCCc1cnc2c(c1SCC(=O)Nc1cccc(C)c1C)c(=O)n(C)c(=O)n2C`, the survival is reported as inactive: 102%.
With `CCOC(=O)c1ccc(NC(=O)c2c(NCc3cc(OC)c(OC)cc3OC)sc3c2CCCC3)cc1` the survival was inactive: 87%.
For `COc1ccc(-n2cc(-c3ccccc3)c3c(NCCc4ccc(OC)c(OC)c4)ncnc32)cc1`, the survival was inactive: 116%.
`CCN1CCN(c2cc3c(cc2F)c(=O)c(S(=O)(=O)c2cc(C)cc(C)c2)cn3CC)CC1` was tested, and the survival was active: -1%.
For `Cc1cccc(N2CCN(c3ncnc4onc(C)c34)CC2C)c1` (centres undefined), the survival was inactive: 77%.
For `CCc1cccc(C)c1NC(=O)c1cn2c3c(ccc(Cl)c3c1=O)OC(C)C2` (centres undefined), the survival was inactive: 122%.
For `Cc1ccc(-c2nc3ncccc3o2)cc1NC(=O)c1ccc(-c2cccc(Cl)c2C)o1`, the survival was inactive: 56%.
`Cc1nc(-c2cccc(F)c2)sc1CCNC(=O)C(=O)Nc1ccc2c(c1)OCO2` was tested, and the survival was inactive: 90%.
`CCOc1ccc(S(=O)(=O)NCC(c2ccc(N(C)C)cc2)N2CCc3ccccc32)cc1` (centres undefined) was tested, and the survival was inactive: 49%.
For `CCCCN(C)S(=O)(=O)c1cc(-c2cc(C)no2)ccc1C`, the survival was inactive: 84%.
For `O=C(CC12CC3CC(CC(C3)C1)C2)NCc1ccco1`, the survival was inactive: 90%.
For `COC(=O)CSc1ccc2nnc(CCNS(=O)(=O)c3ccccc3)n2n1`, the survival was inactive: 118%.
`Cc1cc(-c2nc3ncccc3o2)ccc1NC(=O)c1ccc(Cl)cc1` was tested, and the survival was inactive: 76%.
With `COc1ccccc1OCCSc1nc(C)cc(C)n1` the survival was inactive: 89%.
`CCOc1ccc(NC(=O)c2c(NC(=O)c3ccccc3Br)sc3c2CCC(C)C3)cc1` (centres undefined) was tested, and the survival was inactive: 60%.
For `CCOc1ccc(NC(=O)CC2C(=O)N(c3ccc(C)cc3)C(=O)N2Cc2ccc(OC)cc2)cc1` (centres undefined), the survival was inactive: 68%.
For `Clc1ccc(NC2CCCCC2)nn1`, the survival was active: 66%.
For `COc1ccc(OC)c(NC(=O)N(C)CCc2c(C)nn(C)c2C)c1`, the survival was inactive: 83%.
In the case of `CCC(=O)N1CCc2cc(Br)cc(S(=O)(=O)N(CC)Cc3ccccc3)c21`, the survival is reported as inactive: 50%.
For `NCCNC(=O)CCc1n[nH]c(=O)c2ccccc12`, the survival was inactive: 94%.
In the case of `Nc1ncc2c(n1)CC(c1ccco1)CC2=O` (centres undefined), the survival is reported as inactive: 80%.
`Cc1cccc(-c2nc3ccccc3n3c(-c4ccccc4)c4c(=O)n(C)c(=O)n(C)c4c23)c1` was tested, and the survival was inactive: 122%.
For `COC(=O)C1C(=O)C2=C(CC1C)Nc1ccccc1NC2c1ccc(O)c(OC)c1` (centres undefined), the survival was inactive: 87%.
For `O=C(Nc1ccc(F)c(Cl)c1)N1CCC(CN2CCc3ccccc3C2)CC1`, the survival was inactive: 64%.
In the case of `CCN(C(=O)c1ccco1)c1nnc(Cn2nnc3ccccc32)s1`, the survival is reported as inactive: 91%.
In the case of `Cc1oc(-c2ccccc2F)nc1CSc1nnc(C)n2c1cc1occc12`, the survival is reported as inactive: 74%.
In the case of `CC(C)(C)OC(=O)N1CCC(c2c(C(=O)N3CCOCC3)cnn2-c2cccc(F)c2)CC1`, the survival is reported as inactive: 124%.
